# Source: PubChem BioAssay AID485294 (National Center for Advancing Translational Sciences (NCATS), 2010)
# Out of some 370,000 compounds screened, about 150 (0.041%) were called active. Inconclusive results, whose numbers are uncertain, are shown with a selection of clear calls. The call rests on the fitted dose curve; in most records, active means well fitted inhibition curve with a large enough effect; inconclusive means small, poorly fitted or top-dose-only effect; inactive means flat fitted curve, though single readings scatter. Potencies of inconclusive entries are left out as doubtful fits.
# Molecular target: Beta-lactamase (Escherichia coli (strain K12)) (UniProt P00811)
# UniProt P00811, sequence (P00811 whole entry, looked up): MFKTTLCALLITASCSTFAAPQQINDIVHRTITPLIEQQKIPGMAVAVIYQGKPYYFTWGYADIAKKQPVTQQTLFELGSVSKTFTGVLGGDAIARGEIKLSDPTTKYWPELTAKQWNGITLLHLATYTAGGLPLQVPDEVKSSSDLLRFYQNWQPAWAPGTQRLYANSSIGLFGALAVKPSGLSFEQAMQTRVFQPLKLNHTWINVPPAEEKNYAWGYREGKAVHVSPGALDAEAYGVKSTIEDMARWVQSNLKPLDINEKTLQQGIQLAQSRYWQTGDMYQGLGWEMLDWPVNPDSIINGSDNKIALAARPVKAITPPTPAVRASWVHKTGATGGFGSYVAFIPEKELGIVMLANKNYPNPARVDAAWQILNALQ
# Assay: qHTS Inhibitors of AmpC Beta-Lactamase (assay with detergent); further: nearly all actives have a fitted effect of over 25% in size;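 on activity change, negative = inhibition: 0% = no-compound wells and -100% = no-enzyme wells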
# Details: AmpC hydrolysis of nitrocefin, absorbance 480 nm, 0.01% Triton; activity change, negative = inhibition: at 114 µM (top of the series)
# In short: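 AmpC (5.3 nM in the dispensed reagent) in 20 mM phosphate pH 7.0 with 0.01% (detergent screen) or 0.0001% Triton X-100 was preincubated with compounds for 15 min at room temperature. Nitrocefin was then added from an 800 uM solution, and hydrolysis was followed at 480 nm.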
# Potency means the concentration at half of the fitted maximal effect; tags describe the fitted curve by direction and shape.
SMILES,"activity change, negative = inhibition",Potency
Cc1ccc(C(C)C)cc1OCCCCN1CCCC1,inactive: -1.78%,
COc1ccc(-c2csc(NC(=O)CS(=O)(=O)c3ccccc3)n2)cc1,,"inconclusive [inhibitor, partial curve, poor fit]"
COCCCNC(=O)c1ccc2c(=O)n(Cc3ccc4c(c3)OCO4)c(=S)[nH]c2c1,,"inconclusive [inhibitor, full curve, poor fit]"
COc1cccc(NS(=O)(=O)c2ccc3c(c2)N(C(C)=O)CCO3)c1,,"inconclusive [inhibitor, full curve, poor fit]"
O=C(Nc1cccc(Cl)c1N1CCCCC1)c1ccc(N2CCOCC2)c([N+](=O)[O-])c1,,"inconclusive [inhibitor, partial curve]"
CC1(C)Oc2ccc3ccc(=O)oc3c2/C(=C/Nc2cccc(O)c2)C1=O,inactive: 3.41%,
Cc1ccc(NC(=O)C2COc3ccccc3O2)cc1C (configuration not stated),,"inconclusive [inhibitor, partial curve]"
COC(=O)c1c(C)oc(C)c1S(=O)(=O)N1CCOCC1,inactive: -5.77%,
COc1ccc(OCc2nnc(SCC(=O)NC3CCCCC3)o2)cc1,,"inconclusive [inhibitor, full curve, poor fit]"
COc1ccc(C(=O)C2CCCN(Cc3cc(Cl)ccc3O)C2)c(OC)c1 (configuration not stated),,"inconclusive [inhibitor, full curve, poor fit]"
O=C(c1ccccc1-c1nc(-c2ccc(Cl)cc2)no1)N1CCCC1,inactive: -8.47%,
CC(C)(C)Nc1nc(N2CCCC2)nc(N2CCCC2)n1,inactive: -13.8%,
Cc1ccccc1C(=O)NNC(=O)C(=O)N1CCCCC1,,"inconclusive [inhibitor, partial curve, poor fit]"
CC(C)c1nnc(NC(=O)c2cc3cc(Br)ccc3oc2=O)s1,,"inconclusive [inhibitor, single point]"
CCOC(=O)c1cc2[nH]c3ccccc3c2[n+](-c2ccc([N+](=O)[O-])cc2)c1C,,"inconclusive [inhibitor, full curve]"
CCS(=O)(=O)Nc1cccc(C2=NN(S(=O)(=O)c3ccc(F)cc3)C(c3cccs3)C2)c1 (configuration not stated),,"inconclusive [inhibitor, partial curve]"
COCCCN(C(=S)Nc1c(C)cc(C)cc1C)C(C)c1ccncc1 (configuration not stated),,"inconclusive [inhibitor, full curve]"
CCSc1nc2sc3c(c2c(=O)n1-c1ccc(C)c(Cl)c1)CCN(C(C)=O)C3,,"inconclusive [inhibitor, full curve, poor fit]"
CCOc1cccc(/C=N/Nc2ccc(S(=O)(=O)N(CC)CC)cn2)c1O,,"inconclusive [inhibitor, full curve, poor fit]"
CCOc1cccc2cc(C(=O)Nc3cc(C)on3)c(=O)oc12,,"inconclusive [inhibitor, full curve]"
CCOC(=O)c1nc(N/N=C/c2ccccc2)sc1Br,,"inconclusive [inhibitor, full curve, poor fit]"
CN1C(=O)/C(=C/c2ccccc2F)Sc2ccc(C(=O)NCC3CCCO3)cc21 (configuration not stated),,"inconclusive [inhibitor, partial curve]"
CCN1CCN(C(=O)C2CCN(C(=O)c3cc4sccc4n3CC)CC2)CC1,,"inconclusive [inhibitor, partial curve]"

SMILES,"activity change, negative = inhibition",Potency
O=C(Nc1ccccc1)c1ccc(NCC2CCCO2)c(S(=O)(=O)N2CCOCC2)c1 (configuration not stated),,"inconclusive [inhibitor, partial curve, poor fit]"
CCCCCc1ccc(C2=NNC(=O)CC2)cc1,inactive: -14.4%,
O=C1CC(CC(=O)N/N=C/c2ccccc2[N+](=O)[O-])=NN1,,"inconclusive [inhibitor, full curve, poor fit]"
Cc1c(C(C)C)c(=O)n(-c2ccc(S(=O)(=O)NC3CCCCC3)cc2)n1C,inactive: -1.58%,
Cc1ccc(C)c(Nc2nc3nonc3nc2N2CCOCC2)c1,,"inconclusive [inhibitor, full curve, poor fit]"
COc1ccccc1/C=N/NC(=O)c1c(-c2ccccc2)noc1C,inactive: 7.4%,
COc1ccc(-c2nn(C)c(=O)c3ccccc23)cc1NC(=O)Cn1nc(C)c2ccccc2c1=O,,"inconclusive [inhibitor, partial curve]"
CCOC(=O)c1c2n(c3ccc(O)cc13)CCC2,,"inconclusive [inhibitor, partial curve]"
COc1ccc(CN=C(Nc2ccccc2)SC2CC(=O)NC2=O)cc1 (configuration not stated),inactive: 1.2%,
OC(CN1CCN(c2ccccc2Cl)CC1)c1ccccc1 (configuration not stated),,"inconclusive [inhibitor, full curve, poor fit]"
O=S(=O)(Nc1cccc(-c2ccc(N3CCOCC3)nn2)c1)c1ccc(F)c(C(F)(F)F)c1,,"inconclusive [inhibitor, single point]"
COc1ccc(CCNC(=O)c2ccc3c(c2)CCN3S(=O)(=O)c2ccc(C)cc2)cc1OC,inactive: 1.6%,
COc1ccc(Cl)cc1NC(=O)CN(C)C(=O)c1cn(-c2ccccc2)nc1-c1cccnc1,inactive: -17.9%,
COc1ccccc1C1(CC(=O)N2CCCCC2)CCOC(C(C)C)C1 (configuration not stated),inactive: -1.27%,
Cc1cc(Nc2ccccc2)c2c([N+](=O)[O-])cc(C)c(C)c2n1,,"inconclusive [inhibitor, full curve, poor fit]"
Cc1sc2nc(C)n(/N=C/c3ccccc3)c(=O)c2c1C,,"inconclusive [inhibitor, full curve, poor fit]"
O=C(O)c1cccnc1SC1CC(=O)N(c2cccc(C(F)(F)F)c2)C1=O (configuration not stated),,"inconclusive [inhibitor, partial curve, poor fit]"
CCOCCn1c(CCCO)nc2ccccc21,,"inconclusive [inhibitor, full curve]"
CC(=O)Nc1ccc(S(=O)(=O)Nc2nc3ccccc3nc2Sc2nncn2C)cc1,,"inconclusive [inhibitor, full curve, poor fit]"
CCn1c(C)nc2cc(C(=O)OC(C(F)(F)C(F)F)C(F)(F)C(F)F)ccc21,,"inconclusive [inhibitor, full curve]"
Cc1ccc(-n2c(-c3ccccc3)n[nH]c2=S)cc1,inactive: -1.43%,
COc1cc(C(=O)Nc2nc3ccc4nc(C)sc4c3s2)cc(OC)c1OC,,"inconclusive [inhibitor, full curve, poor fit]"
Cn1c(CN2CCCC2)nc2cc(NC(=O)c3ccco3)ccc21,,"inconclusive [inhibitor, partial curve]"

SMILES,"activity change, negative = inhibition",Potency
CCCc1nn(C)c(C(=O)Nc2ccc(C(C)(C)C)cc2)c1Cl,,"inconclusive [inhibitor, full curve, poor fit]"
N#C/C(=C\c1ccco1)C(=O)Nc1ccc(S(N)(=O)=O)cc1,,"inconclusive [inhibitor, full curve, poor fit]"
COc1ccc(C(=O)Nc2ccc3c(c2)OCCO3)cc1S(=O)(=O)N1CCOCC1,inactive: 2.84%,
O=C(CCNC(=O)c1ccc([N+](=O)[O-])cc1)NCc1ccccc1,,"inconclusive [inhibitor, full curve, poor fit]"
CCCc1nc(SCC(=O)Nc2cc(Cl)ccc2OC)c2c(=O)n(C)c(=O)n(C)c2n1,,"inconclusive [inhibitor, full curve, poor fit]"
CCc1nnc(NC(=O)CSc2nc3ccccc3s2)s1,inactive: 0.565%,
CCCCCCCNC(=O)C1(CC2CC(c3ccccc3)=NO2)CCN(C(=O)OC(C)(C)C)CC1 (configuration not stated),inactive: -8.09%,
Brc1c(CSc2nc3ccccc3o2)nc2ncccn12,,"inconclusive [inhibitor, full curve, poor fit]"
CCN1CCN(S(=O)(=O)c2cc3c(cc2Cl)NC(=O)CO3)CC1,,"inconclusive [inhibitor, single point]"
CC(C)OCCCn1c(SCc2ccccc2Cl)nc2c(sc3ccccc32)c1=O,inactive: 9.18%,
CCOc1ccc(NC(=O)CSc2cn(CC(=O)N3CCOCC3)c3ccccc23)cc1,inactive: 7.05%,
OC(Cc1ccccc1)(c1ccccc1)C1CN2CCC1CC2 (configuration not stated),,"inconclusive [inhibitor, partial curve]"
FC(F)(F)c1nc2ccccc2c2nc3ccccc3n12,,"inconclusive [inhibitor, full curve, poor fit]"
COc1ccccc1NS(=O)(=O)c1cc(C(=O)N2CCCC2)ccc1C,,"inconclusive [inhibitor, full curve, poor fit]"
COc1cc(C2NC(=O)NC(c3ccccc3)=C2C(C)=O)c(Br)cc1OCC(N)=O (configuration not stated),,"inconclusive [inhibitor, partial curve]"
CCOC(=O)C1(CCOC)CCN(Cc2ccccc2-c2ccco2)CC1,inactive: 0.718%,
C1CCN=C(NC23CC4CC(CC(C4)C2)C3)CC1,,"inconclusive [inhibitor, full curve, poor fit]"
O=C(N/N=C/c1ccccn1)c1cccc(S(=O)(=O)Nc2ccccc2Cl)c1,inactive: -5.87%,
Cc1ccc(Cl)cc1N1CCN(C(=O)c2cn(C)c(=O)c3c2c2ccccc2n3C)CC1,,"inconclusive [inhibitor, full curve, poor fit]"
Cc1nnc(SCc2ccc(CC(=O)O)cc2)o1,,"inconclusive [inhibitor, partial curve]"
CSc1oc(-c2ccco2)nc1S(=O)(=O)c1ccccc1,,"inconclusive [inhibitor, full curve, poor fit]"
